Hit rate of the full screen: of about 45,000 compounds, about 65 (0.1%) were called active. Calls come from the whole dose curve; as a rule, active = well fitted activation curve with a large enough effect; inconclusive = small, poorly fitted or top-dose-only effect; inactive = no such curve, though single readings can be large or run the other way. The list shows a part of the results.

Sequence of UniProt P54803 (P54803 whole entry, looked up): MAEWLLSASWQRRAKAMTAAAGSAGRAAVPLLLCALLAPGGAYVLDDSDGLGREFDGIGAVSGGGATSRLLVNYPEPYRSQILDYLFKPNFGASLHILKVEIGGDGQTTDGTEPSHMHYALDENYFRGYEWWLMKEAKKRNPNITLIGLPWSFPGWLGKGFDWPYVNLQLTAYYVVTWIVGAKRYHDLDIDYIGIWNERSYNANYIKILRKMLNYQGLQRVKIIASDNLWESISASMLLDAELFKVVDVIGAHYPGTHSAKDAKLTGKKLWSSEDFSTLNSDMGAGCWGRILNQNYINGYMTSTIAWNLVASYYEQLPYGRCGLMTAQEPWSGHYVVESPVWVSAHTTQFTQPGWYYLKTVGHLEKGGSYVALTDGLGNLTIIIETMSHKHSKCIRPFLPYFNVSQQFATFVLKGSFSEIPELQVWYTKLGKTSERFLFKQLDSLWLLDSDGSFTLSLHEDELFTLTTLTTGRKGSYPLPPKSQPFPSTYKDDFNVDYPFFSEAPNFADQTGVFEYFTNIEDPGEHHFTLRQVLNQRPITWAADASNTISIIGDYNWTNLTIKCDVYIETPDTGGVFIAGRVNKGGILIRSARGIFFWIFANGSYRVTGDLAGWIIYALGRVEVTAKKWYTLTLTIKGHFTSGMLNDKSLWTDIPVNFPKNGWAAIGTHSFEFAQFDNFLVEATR

The target in this experiment is Galactocerebrosidase (Homo sapiens) (UniProt P54803). Kind of experiment: A Novel Cell-Based Assay to Identify Small Molecules for B -Galactocerebrosidase. Note: 0% is about no effect; nearly all actives have a fitted effect of over 65% in size. Conditions: 145M-Twi-hGALC-G270D cells, HMU-beta-Gal fluorescence, 48 h; series mostly up to 57.5 µM; activation: at the top concentration. The method, boiled down:
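qHTS, 1536-well; 145M-Twi-hGALC-G270D cells (WT line also made) in DMEM/F12 + 10% FBS; compound incubation on live cells; HMU-β-gal 0.1 mM final, pH 5.2, NaTC; carbonate stop; fluorescence increase = enhanced residual activity.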
For `Cc1ccccc1N1CC(c2nnc(NC(=O)c3ccco3)s2)CC1=O` (stereo unspecified), the “activation” value was inactive: -11.1%. Under `O=C(CN1C(=O)c2cccc3cccc1c23)Nc1ccccc1Br` stands inactive: -8.56%. Under `Cn1nc(C(=O)N2CCN(c3ccccc3F)CC2)c2c1-c1ccccc1S(=O)(=O)C2` stands inactive: -11.3%. The same measure for `CCCCNS(=O)(=O)c1ccc2nc(-c3cccnc3)cc(C(=O)NC(C)C)c2c1`: inactive: -13.8%; for `CCCC1N=C2c3ccccc3N=C(SCC(=O)NCCc3ccc(Cl)cc3)N2C1=O` (stereo unspecified): inactive: -14.4%; for `O=C(c1cc(-c2ccc(F)cc2)on1)N1CCN(c2ccc(F)cc2)CC1`: inactive: -11.9%. As for `CCOC(=O)COc1ccc(C)cc1C(=O)c1ccn2nc(-c3ccc(Cl)cc3)cc2n1`, the “activation” value was inactive: -4.02%. For the compound `CC(C)NC(=O)c1ccc2c(c1)nc1n2CCCCC1`, the “activation” value is inactive: -9.01%. The same measure for `CCCOC(=O)CSc1nnc(-c2ccccc2)o1`: inactive: -10.2%.

With `CCOC(=O)c1ccccc1NC(=O)c1cc2ccc3cccnc3c2[nH]1`, the “activation” value was inactive: -6.8%. Under `Cc1oc2ncnc(N3CCOCC3)c2c1C(=O)NCCc1ccccc1` stands inactive: -8.75%; under `CCn1c(C(=O)Nc2ccc(C)cc2C)cc2sc(Cl)cc21`, inactive: -3.1%.

Regarding `CC1CCC(NC(=O)C2(C)Cc3ccccc3C(=O)N2Cc2ccc(Cl)cc2)CC1` (stereo unspecified), the “activation” value was inactive: 3.18%.

For the compound `Cc1ccc(NS(=O)(=O)c2ccc3nc(-c4ccccc4)[nH]c3c2)c(Br)c1`, the “activation” value is inactive: -11%. The same measure for `COc1ccc(-c2noc(CC(=O)Nc3cc(OC)ccc3OC)n2)cc1`: inactive: -0.157%. The same measure for `Cc1sc2ncn(CC(=O)N(C)c3ccc(C(C)C)cc3)c(=O)c2c1S(=O)(=O)N1CCC(C)CC1`: inactive: -11.6%; for `Cc1ccc(Nc2nc3ccc(C(=O)c4ccccc4)cc3n3c(C)nnc23)c(C)c1`: inactive: -9.62%; for `O=C(/C=C/c1ccc(Cl)cc1)N1CCC(c2nc3ccccc3o2)CC1`: inactive: -6.56%. Under `CCCCN(CC)CCCNC(=O)c1cn(CC)c2ccc(S(=O)(=O)N3CCc4ccccc4C3)cc2c1=O` stands inactive: -12.8%; under `CCCn1c(=O)c2sccc2n2c(CCCC(=O)N3CCN(c4cccc(Cl)c4)CC3)nnc12`, inactive: -13.6%; under `CC(=O)c1cccc(NC(=O)CN2C(=O)CC(c3ccc(C)cc3C)=Nc3ccccc32)c1`, inactive: -5.31%. In the case of `COc1ccc(CCNC(=O)c2cc3c(=O)n(C)c4ccccc4c3s2)cc1OC`, the “activation” value was inactive: 3.8%. On to `O=C(Cn1cc(C(=O)c2ccccc2)c(=O)c2cc3c(cc21)OCCO3)Nc1ccc(F)c(F)c1`, for which the “activation” value is inactive: -25.9%. The same measure for `Cc1ccc(C)c(N2CCN(S(=O)(=O)c3ccc(C(=O)N(C)C)s3)CC2)c1`: inactive: -17.7%; for `CCc1cc2c(cc3c(=O)n(CC(=O)N4CCN(c5cccc(C)c5C)CC4)nc(CC)n32)s1`: inactive: -1.27%. Under `CCc1ccccc1NC(=O)CCC(=O)N1CC(C)Oc2ccc(C)cc21` (stereo unspecified) stands inactive: -7.68%. The same measure for `COc1ccc(CCNCc2c(C(=O)O)c(C)n(Cc3cccc(Cl)c3)c2C)c(OC)c1OC`: inactive: -10.2%. In the case of `COc1ccc(NC(=O)CCNS(=O)(=O)c2ccc3c(c2)CCCC(=O)N3)cc1`, the “activation” value was inactive: -15.6%. In the case of `Cc1ccc(-c2cc3ncc4c(n3n2)-c2cc(Cl)ccc2OC4)cc1`, the “activation” value was inactive: 3.14%. `CCn1nnc2cc(C(=O)Nc3cc(C)ccc3C)ccc21`: the “activation” value was inactive: -10.7%. The same measure for `O=C(NCc1ccc(F)cc1)C(=O)Nc1ccc2nc3n(c(=O)c2c1)CCCCC3`: inactive: -8.99%; for `CCOc1ccc(CC(=O)NCc2ccc3c(c2)CCN3C(=O)c2ccccc2)cc1OCC`: inactive: -16.1%.

On to `COc1ccc(NC(=O)CC2C(=O)N(c3cccc(OC)c3)C(=O)N2CCC2=CCCCC2)cc1` (stereo unspecified), for which the “activation” value was inactive: -13.4%. Under `O=C(Cn1cc(S(=O)(=O)Cc2ccccc2Cl)c2ccccc21)NCCc1ccccc1` stands inactive: -10.4%; under `Cc1ccccc1CNC(=O)CCC(=O)N1CCSc2ccccc21`, inactive: 5.44%; under `CCOc1ccccc1CNS(=O)(=O)c1cc2c(cc1C)NC(=O)CO2`, inactive: -11.9%. The same measure for `COc1ccc(NC(=O)c2c(NC(=O)COc3ccccc3)sc3c2CCCCC3)cc1`: inactive: -19.6%.

Consider `COc1ccccc1C(=O)Nc1ccc(S(=O)(=O)Nc2ncccn2)cc1`, for which the “activation” value was inactive: -11.3%. The same measure for `Cc1cc(F)ccc1NC(=O)CCn1nc(C)c(S(=O)(=O)N2CCCCC2)c1C`: inactive: -4.53%. Under `Cc1ccc(C)c(N2CCN(C(=O)C(CC(C)C)NS(=O)(=O)c3ccc4nc(C)sc4c3)CC2)c1` (stereo unspecified) stands inactive: -19%; under `Cn1c([N+](=O)[O-])cnc1COC(N)=O`, inactive: -8%. The same measure for `NC(=O)CSc1nc2ccc(NC(=O)COc3ccccc3Cl)cc2s1`: inactive: -11.9%. Regarding `CS(=O)(=O)N(Cc1ccccc1)c1ccc(C(=O)Nc2ccc(Cl)cc2)cc1`, the “activation” value is inactive: -11.5%. Under `Cc1cccc(-n2nc(C)c(C(=O)N3CCN(c4ccccc4)CC3)c2-n2cccc2)c1` stands inactive: -0.034%; under `Cc1ccc(C)c(N2CCN(c3nc4ccc(C(=O)c5ccccc5)cc4n4cnnc34)CC2)c1`, inactive: -13.6%; under `CCOC(=O)c1cnc2c(C)cccc2c1Nc1ccc(OC(C)C)cc1`, inactive: 4%. Under `Cn1c(=O)[nH]c(=O)c2c1nc(CN1CCN(c3ccccc3F)CC1)n2Cc1ccc(F)cc1` stands inactive: -22.3%. For the compound `COc1ccccc1CN(Cc1c(Cl)cccc1Cl)S(=O)(=O)c1ccc(Br)cc1`, the “activation” value was inactive: -5.93%.

For the compound `Cc1cccc(OCCCn2c(CCNC(=O)C3CCCCC3)nc3ccccc32)c1`, the “activation” value is inactive: -22.7%. Take `COc1ccc(Cl)cc1NC(=O)c1cc(S(=O)(=O)N(C)Cc2ccccc2)ccc1F`: the “activation” value was inactive: -17.8%. As for `COc1cccc(-c2nc(SCC(=O)Nc3ccc4c(c3)OCCO4)c(-c3ccc(C)cc3)[nH]2)c1`, the “activation” value was inactive: -13.5%. The same measure for `CCOc1ccc(-c2cc(C(=O)NCCc3ccc(OC)c(OC)c3)c3c(-c4ccc(F)cc4)[nH]nc3n2)cc1`: inactive: -14.1%.

`Cc1ccc(Cl)cc1NC(=O)c1oc2ccc(S(=O)(=O)N3CCCCCC3)cc2c1C`: the “activation” value was inactive: 0.803%.

Turning to `Cn1cc(S(=O)(=O)c2cccc(Cl)c2)c(=O)c2cc(F)c(N3CCCCC3)cc21`, the “activation” value was inactive: -9.23%. The same measure for `O=C(NCCc1ccc(Cl)cc1)c1ccc(CSCc2cccc(Cl)c2)o1`: inactive: -15.9%; for `CCCN1C(=O)C(Cc2nc3ccccc3c(=O)n2-c2ccc(OC)cc2)c2cc(C)ccc21` (stereo unspecified): inactive: -8.98%; for `CCc1cccc(C)c1NC(=O)CSc1nc2c(c(=O)[nH]1)CCC2`: inactive: 1.69%.

As to `Cc1cc(C)cc(OCC(=O)N2CCC(c3nc4ccccc4s3)CC2)c1`, the “activation” value was inactive: -18.4%. Under `Cc1ccc(C(=O)Nc2ccc3oc(-c4ccccc4C)nc3c2)cc1` stands inactive: -8.28%; under `CC(=O)N1CCc2c(sc3c2c(=O)n(-c2ccc(C)cc2)c(=O)n3Cc2ccccc2C)C1`, inactive: -8.13%; under `CCCCNC(=O)c1ccc2c(c1)NC(=O)C(CS(=O)(=O)Cc1ccc(C)cc1)N2` (stereo unspecified), inactive: -2.17%. Under `O=C(NCC(c1ccco1)S(=O)(=O)c1cccs1)c1ccc(Cl)cc1` (stereo unspecified) stands inactive: -5.07%. Under `Cc1cc(C(=O)NCc2ccccc2Cl)c2c(C)nn(-c3cccc(F)c3)c2n1` stands inactive: -13.5%.

In the case of `Cc1ccc2oc(=O)n(CCNC(=O)Nc3ccc(Cl)cc3)c2c1`, the “activation” value is inactive: -18.2%. The same measure for `CCCN(C(=O)Nc1cn(CC(C)C)c(=O)c2ccccc12)c1ccc(F)cc1`: inactive: -22.3%. As for `Cc1cc(C)cc(NC(=O)CSc2nc3sc4c(c3c(=O)[nH]2)CCCC4)c1`, the “activation” value is inactive: 19.3%.

As for `CCC1CN(C(=O)Nc2cc(Cl)c(OC)cc2OC)c2ccccc2O1` (stereo unspecified), the “activation” value was inactive: -12.2%. In the case of `CCc1ccc(C2c3c(oc4cc(C)c(C)cc4c3=O)C(=O)N2c2nc(C)c(C(=O)OC)s2)cc1` (stereo unspecified), the “activation” value is inactive: -21.7%.

As for `Cc1cc(Cl)ccc1NC(=O)CCCn1nc(C)c2c(C)n(-c3ccccc3)nc2c1=O`, the “activation” value was inactive: -30.2%. Turning to `COc1cc(OC)c(C2C(C(=O)Nc3ccccc3)=C(C)Nc3ncnn32)cc1OC` (stereo unspecified), the “activation” value is inactive: -14.7%. Under `COc1ccc(-c2noc(CC(=O)Nc3ccc(C)c(F)c3)n2)cc1` stands inactive: -13.7%.

As for `CC(C)C(=O)OCc1cc(=O)n2nc(C3CC3)sc2n1`, the “activation” value was inactive: -3.25%.

For `CCCCN(C)S(=O)(=O)c1ccc(C(=O)Nc2ccc(-c3nc4ccc(C)cc4s3)cc2)cc1`, the “activation” value was inactive: -15.3%. Regarding `CCN1CCN(c2oc(/C=C/c3cc(OC)c(OC)c(OC)c3)nc2C#N)CC1`, the “activation” value is inactive: -3.91%. The same measure for `Cc1cccc(C)c1NC(=O)CN1CCCCCC1`: inactive: -7.14%; for `Cc1cc(NC(=O)c2cccn2-c2nnc(N3CCCCC3)s2)ccc1Br`: inactive: -14.2%. The same measure for `COc1cc(C2Nc3ccccc3-c3nnc(SCc4ccc(C)cc4)nc3O2)cc(OC)c1O` (stereo unspecified): inactive: -2.94%; for `CCc1ccc(CNC(=O)c2cnc3c(C)cccn3c2=O)cc1`: inactive: -3.1%. The same measure for `Cc1c(Cl)cccc1NC(=O)C1CCN(c2nc3ccccc3[nH]2)CC1`: inactive: -0.824%; for `Cc1ccc(Nc2cc(C)c(C#N)c3nc4ccccc4n23)c(C)c1`: inactive: -8.1%; for `COC(=O)c1sccc1S(=O)(=O)N(CC(=O)Nc1ccccc1)c1ccccc1`: inactive: -12%. Consider `CCCC(=O)Nc1cccc(-c2cn3c(C)csc3n2)c1`, for which the “activation” value was inactive: -18%.

On to `Cc1ccc(Cn2c(=O)c3cccnc3n(CC(=O)Nc3cc(Cl)ccc3C)c2=O)cc1`, for which the “activation” value was inactive: -1.34%. The same measure for `CSc1ccc(CCNC(=O)c2cc3cc4cc(C)ccc4nc3s2)cc1`: inactive: -12%; for `Cc1c(Cl)cccc1NC(=O)Cn1c(=O)n(Cc2nc(-c3ccccc3)no2)c(=O)c2cc3c(cc21)OCO3`: inactive: 6.46%.

With `CCc1nn(CC(=O)NCCCc2ccccc2)c(=O)c2cc3ccccc3n12`, the “activation” value was inactive: -14.2%.

Consider `Cc1cccc(Nc2nnc(-c3ccc(C)c(S(=O)(=O)N4CCN(C)CC4)c3)c3ccccc23)c1`, for which the “activation” value was inactive: -9.28%. Under `Cc1cccc(C(C)C)c1NC(=O)c1ccc2c(c1)CCN2S(C)(=O)=O` stands inactive: -7.73%; under `Cc1ccc(Cl)cc1NC(=O)Cn1c(=O)n(C(C)C)c(=O)c2oc3ccccc3c21`, inactive: 5.93%; under `Cc1nn2c(=O)cc(COC(=O)c3cccc(NC(=O)c4ccc(F)cc4)c3)nc2s1`, inactive: -1.15%. Under `O=C(O)CCc1ccc(-c2ccccc2)n1-c1ccc(C(=O)O)cc1` stands inactive: 2.77%. The same measure for `CC(=O)Nc1cccc(NC(=O)CSc2ccc(-c3sc(-c4ccccc4)nc3C)nn2)c1`: inactive: -11.2%; for `CC(C)CCNC(=O)C(=O)Nc1c2c(nn1-c1ccc(Cl)cc1)CSC2`: inactive: -22.8%.

As to `CCn1c(CN2CCC(C)CC2)nc2cc(NC(=O)c3ccc([N+](=O)[O-])cc3)ccc21`, the “activation” value was inactive: -16.3%. Take `COc1cccc(NC(=O)C2CCN(S(=O)(=O)c3ccc4[nH]c5c(c4c3)CCCCC5)CC2)c1`: the “activation” value was inactive: 5.24%. Under `COC(=O)c1ccccc1NC(=O)c1nn(-c2ccc(OC)cc2)c(=O)c2c1c1ccccc1n2C` stands inactive: 1.08%.
